According to the supplement of paper PMC10126150:
Sequences with one replicate were seen in a single cluster, so their values are uncertain.

System: ATP
Assay: switch fluorescence ratio, 500 uM ATP over buffer (Cy3 cluster intensity, sum of 5 cycles each) (fold (ratio)); higher = stronger signal-on switching upon ATP binding; sequences stand for … in TCGTCGGCAGCGTCAGATGTGTATAAGAGACAGTTTTTTTTTTTTTTTTTTTTTTTTT…TC
Settings: aptamer strand: ATP DNA aptamer (quencher-CACCTGGGGGAGTATTGCGGAGGAAGG + anchor), 100 nM annealed; ATP concentration: 500 uM; one replicate
Procedure, shortened: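 Between each of five buffer/ATP cycles, the flow-cell was stripped with NaOH and re-annealed. Each cycle imaged Cy3-labelled switching-strand clusters, annealed to 100 nM quencher-labelled ATP aptamer on a modified Illumina MiSeq flow-cell, first in selection buffer and then after 15 min with 500 uM ATP at 22 °C. The fluorescence ratio is summed target-cycle over summed buffer-cycle Cy3 intensity per cluster, averaged per switch-domain sequence, with clusters outside 100-1000 RFU excluded.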
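Also: ATP exposure 15 min at 22 °C before imaging.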

Sequence	switch fluorescence ratio
ATTGTAGCTA	0.988
ACGATTTTC	1.04
TAGATAGTGT	1
GCAGTTATTG	1
GTAGTCACTG	1.06
GGTAGCAATC	5.64
TACGCTAGTC	1.08
TATAGTTAT	0.997
CGTCTTTGTG	0.969
CCAATCATGG	1.03
CGATGCCTTG	0.972
AGCTTGCCTT	1.01
GATGGGTGGG	0.998
TCCGGGTGAG	1.21
GAAAAGTAAT	0.989
CGGACGCGGT	1.72
ATGGTGGCTC	1.01
GGCTCGTG	0.967
AACCAACTAC	1.27
TCGCTTGGTC	1.07
GTATGGACTT	0.969
GTGAAATACT	1.19
TCACTATTCA	1.07
ACCGTACCGT	1.5
ACCCGCGTCA	1.25
ATTGAGGATT	0.987

Sequence	switch fluorescence ratio
CTTTAACCAT	0.971
ACATCGGCAA	1.72
CGATTAAGAA	0.991
CGGTCATGG	1.03
ATTACCCATA	1.05
AGACAGGAAA	0.984
ATTTCAGGCC	1
TAGGCCGGGG	0.971
ATAGTCATGC	1.01
CACATAGTCG	1.02
GAATACCGCG	1.1
GTTTGTAATG	0.984
GGGCATGCAC	0.974
CAACGGTACA	1.37
GGTTCTAGT	1.01
CACAATTCTG	1.02
ATTAGATA	0.989
CAGTTCGCCG	1.04
GCTGGATCTA	1.02
ATTAAACCGT	1.06
GTGGTGGAGT	0.95
GTGGGAGGCC	1.04
AGTTCGACAC	1.02
GGAGCACACG	1.97
TAAACGCTAA	1.18
GTGGCTAAGC	1.01

Sequence	switch fluorescence ratio
TGCGGAAAAT	0.998
CATGGATGTG	0.992
GGGGCCTCAG	1.01
CATGTTGCGG	0.993
ATGTTTTAGC	1.02
TGTTAAATA	1.04
CCCTGACGCC	3.45
AGCTGAAGGG	1.01
CGGTGAATAG	1.02
GTGGACGGAT	1.01
GGCTCGATGC	0.971
CATAGTGGCC	1.03
GGAGGTAAAC	0.97
CCATTGAACT	1.04
GACGATGGCT	1.07
ACGTCCGGGA	1.14
AAATAGGG	1.02
TCAGAGTTT	0.979
AGACTGTCCT	0.986
GACGGAATAG	3.98
TATTCAAGCC	1.04
ACGATCTGCT	1.04
CGTAACATGC	1.4
TGCTTTTCGA	1.02
TCCCCCGAAG	1.46
TTCTCTCCTG	1.02

Sequence	switch fluorescence ratio
CAGCAAAGGT	1.09
TGCTGGAGTT	0.987
AGAAATTGGC	1.05
CTAGGATTT	1.01
ACGCGTAGCC	1.01
TTATGCCATG	0.982
TTCGAAAATA	0.98
GGTATCGTTA	1
ACTTGGTCGG	0.992
GGCGACGGGA	1.04
GGTATACGGA	1.01
GTCGGGAGGG	0.988
CCTTTTATTG	1
TTTGTGAGCG	1.03
AGTGTTGTTT	0.989
AGTCCATTCC	1.4
TCTGAGCACA	1.26
AGAGTGAAGT	0.998
TCGGCTCAGT	0.979
TTATTTCTGA	1.01
GGCGGACGCT	0.922
AGGAATTAA	0.975
TTGAATTCTA	0.987
CTGGATCATT	0.993
TATCGAACAG	1.04
AGCGTAGTAG	1.02

Sequence	switch fluorescence ratio
GAGCGGTGGG	1.02
GCTGCGGACG	0.986
GATACATACG	1.53
GGACTAAGGT	1
TACACTTAGT	1.06
AACACTTCG	1.05
CGTGTGTTAG	1.01
GCTTTACCGA	1
TTTGGGTTAG	0.963
ATGGACATAA	1.05
TGTTTCGT	1.03
GCAGTCGCCC	0.965
AGGTGGGTGA	1
TCAGTTCGTC	0.946
ACTGTCCCGA	1.07
GCTATACCCG	1.08
ATTAACAAGC	1.02
CCGTTAGCAT	4.34
TCTGAACTCA	1.06
GTAACATTGA	0.964
AGGTCATGCG	1
TGGTCGTATG	0.956
ATGGCATTGT	0.991
CTGAAGGGTA	1.03
ATGGAGCAGC	1.14
TGCAACTTAA	1.02

Sequence	switch fluorescence ratio
ATTCGACTTT	1.07
CTGAACAGGT	0.967
TACGATCTAA	1.02
CAACTTGCGG	1.03
TACACTCGCC	1.09
GATTAAGCCT	1.16
ATTACGGCCG	1.04
GAGTACTTGG	0.971
ACACTATAGA	1.07
GATGTACCCG	1.07
GAGTGTTTAT	1.01
GAGTGTATGG	1.02
TGGCCTTTAA	0.991
TGATGCGGTA	0.999
GTGTGGGAT	0.993
CTCACGTTAG	1.05
TTATGCCGAC	1.02
TACACCGAT	1.05
ACCCGATCCG	1.09
ACGGAAGTAC	1.43
TATATCTCTT	1.02
ATTATAGTCT	0.961
ACTGTATACT	1.19
TTCCCGATTA	1.05
CCCAGCAGAG	2.03
AATCGCTCT	0.976

Sequence	switch fluorescence ratio
TGTAATCCGA	0.992
TCGAGTCGCA	1.06
TGGGGTCCCA	0.981
TGAGTTTAGC	1
GTGAGGCTTA	1.01
ATATTCGCAA	3.73
ACCATTGGGC	0.959
CGTTGGTCGT	0.99
TATTGAAGCT	0.999
AGATGTCGCA	0.98
GGGGCTGGAC	1.02
CAGAGTAGTG	0.973
GGGGATGCCT	0.995
TAGAGATTC	1.02
GATATTGATG	1
ACATCGCCGT	1.01
ATCGGAAGGT	0.998
GATCTGCAGC	1.23
ACCCTTAGCA	1.09
TATACTGTTT	0.962
GCGATTGGCA	1.01
CAATATGAAG	0.996
TGGAGGGG	0.996
AATCAACCAC	1.09
CCGGGAGAG	1.33
TTCAAGATGC	1.38

Sequence	switch fluorescence ratio
GAGTCTATGG	0.963
CGGGTTGTGC	0.957
AGTGCCGCTT	1.03
TAGCCAGGTT	1.1
TCACTTTCTA	1.04
CGGATAAGAT	0.986
AGAAATAAGT	1.01
TAAATGTAAA	0.997
GAGAGGTGTG	0.992
TTCGATGAAG	0.963
CGTTTGTTTC	0.974
ATGCAGGGGG	1.01
CCGAGTCGCT	1.47
CCCATCTAGT	0.975
GCGTGTTTGG	1.02
TTCTACGCAC	1.63
AAAATTTTCC	1.02
CGTAGTAACG	0.979
TAGTTCCGTT	1.03
